Test results from the supplement of paper PMC4604168 (melanoma cell lines).
This is one part of the list. Single values are uncertain, as repeats are few or missing.
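Also: cell number obtained by counting DAPI-stained nuclei in high-throughput microscope images with image analysis software, screen run in 1,536-well plates.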

What follows are compounds tested on A101D (assay: cell count relative to DMSO control; melanoma cells; higher = more viable cells). Settings: library dose: low library concentration; 72 h.
Compound `CCCCCCCCc1ccc(CCC(N)(CO)CO)cc1` [fingolimod] + NC(=O)Nc1cc(-c2cccc(F)c2)sc1C(=O)N[C@H]1CCCNC1 [AZD7762] (first compound 2 µM, partner dose 0.02 µM) has a cell count of 73.5%. `CCCCCCCCc1ccc(CCC(N)(CO)CO)cc1` [fingolimod] + CO[C@@H]1[C@H](N(C)C(=O)c2ccccc2)C[C@H]2O[C@]1(C)n1c3ccccc3c3c4c(c5c6ccccc6n2c5c31)C(=O)NC4 [Midostaurin] (first compound 2 µM, partner dose 0.08 µM) showed a cell count of 84.5%. In the case of `Cc1ccc(NC(=O)c2cccc(N(C)C)c2)cc1NC(=O)c1ccc(O)cc1` + CN(C)S(=O)(=O)c1ccc2c(c1)/C(=C/c1cc3c([nH]1)CCCC3)C(=O)N2 [SU6656] (first compound 2 µM, partner dose 0.4 µM), the cell count is reported as 72.4%. In the case of `NC(=O)c1ccc(N(C(N)=O)c2c(F)cccc2F)nc1-c1ccc(F)cc1F` + OCCn1cc(-c2cnc3nnn(Cc4ccc5ncccc5c4)c3n2)cn1 [PF04217903] (first compound 0.4 µM, partner dose 1 µM), the cell count is reported as 102%. `CC(C)(C)c1cnc(CSc2cnc(NC(=O)C3CCNCC3)s2)o1` + Cc1cc(N2CCOCC2)cc2[nH]c(-c3c(NC[C@@H](O)c4cccc(Cl)c4)cc[nH]c3=O)nc12 [BMS536924] (first compound 0.01 µM, partner dose 0.2 µM) showed a cell count of 110%. For `NC(=O)c1ccc(N(C(N)=O)c2c(F)cccc2F)nc1-c1ccc(F)cc1F` + NCC(=O)Nc1ccc(-n2nc(C(F)(F)F)cc2-c2ccc3c(ccc4ccccc43)c2)cc1 [OSU03012] (first compound 0.4 µM, partner dose 1 µM), the cell count was 84.4%.

What follows are compounds tested on A2058 in the same assay as above. Settings: library dose: low library concentration; 72 h.
In the case of `NC(=O)c1ccc(N(C(N)=O)c2c(F)cccc2F)nc1-c1ccc(F)cc1F` + Cn1cncc1[C@@](N)(c1ccc(Cl)cc1)c1ccc2c(c1)c(-c1cccc(Cl)c1)cc(=O)n2C [tipifarnib] (first compound 0.4 µM, partner dose 0.01 µM), the cell count is reported as 99.2%. For `NC(=O)c1ccc(N(C(N)=O)c2c(F)cccc2F)nc1-c1ccc(F)cc1F` + CO[C@@H]1[C@H](N(C)C(=O)c2ccccc2)C[C@H]2O[C@]1(C)n1c3ccccc3c3c4c(c5c6ccccc6n2c5c31)C(=O)NC4 [Midostaurin] (first compound 0.4 µM, partner dose 0.08 µM), the cell count was 81.8%. `NC(=O)c1ccc(N(C(N)=O)c2c(F)cccc2F)nc1-c1ccc(F)cc1F` + CN(NC(=O)CC(=O)NN(C)C(=S)c1ccccc1)C(=S)c1ccccc1 [STA4783] (first compound 0.4 µM, partner dose 0.006 µM) showed a cell count of 87.3%. In the case of `Cc1ccc(NC(=O)c2cccc(N(C)C)c2)cc1NC(=O)c1ccc(O)cc1` + O=C(O)c1ccc(-c2c[nH]c3ncc(-c4ccccc4)cc23)cc1C1CCCC1 [GSK650394] (first compound 2 µM, partner dose 0.16 µM), the cell count is reported as 103%. Compound `NC(=O)c1ccc(N(C(N)=O)c2c(F)cccc2F)nc1-c1ccc(F)cc1F` + Cc1cc(N2CCOCC2)cc2[nH]c(-c3c(NC[C@@H](O)c4cccc(Cl)c4)cc[nH]c3=O)nc12 [BMS536924] (first compound 0.4 µM, partner dose 0.2 µM) has a cell count of 101%. In the case of `NC(=O)c1ccc(N(C(N)=O)c2c(F)cccc2F)nc1-c1ccc(F)cc1F` + COc1cc(Nc2ncc(F)c(Nc3ccc4c(n3)NC(=O)C(C)(C)O4)n2)cc(OC)c1OC [Tamatinib] (first compound 0.4 µM, partner dose 0.4 µM), the cell count is reported as 95%. `CCCCCCCCc1ccc(CCC(N)(CO)CO)cc1` [fingolimod] + CN(C)S(=O)(=O)c1ccc2c(c1)/C(=C/c1cc3c([nH]1)CCCC3)C(=O)N2 [SU6656] (first compound 2 µM, partner dose 0.4 µM) showed a cell count of 87.3%. `CCCCCCCCc1ccc(CCC(N)(CO)CO)cc1` [fingolimod] + OCCn1cc(-c2cnc3nnn(Cc4ccc5ncccc5c4)c3n2)cn1 [PF04217903] (first compound 2 µM, partner dose 1 µM) gave a cell count of 94.1%. Work on `NC(=O)c1ccc(N(C(N)=O)c2c(F)cccc2F)nc1-c1ccc(F)cc1F` + NC(=O)Nc1cc(-c2cccc(F)c2)sc1C(=O)N[C@H]1CCCNC1 [AZD7762] (first compound 0.4 µM, partner dose 0.02 µM) yielded a cell count of 111%. With `NC(=O)c1ccc(N(C(N)=O)c2c(F)cccc2F)nc1-c1ccc(F)cc1F` + O=C(O)c1ccc(-c2c[nH]c3ncc(-c4ccccc4)cc23)cc1C1CCCC1 [GSK650394] (first compound 0.4 µM, partner dose 0.16 µM) the cell count was 99.3%. `CCCCCCCCc1ccc(CCC(N)(CO)CO)cc1` [fingolimod] + COc1cc(Nc2ncc(F)c(Nc3ccc4c(n3)NC(=O)C(C)(C)O4)n2)cc(OC)c1OC [Tamatinib] (first compound 2 µM, partner dose 0.4 µM) showed a cell count of 75.3%. Work on `CC(C)(C)c1cnc(CSc2cnc(NC(=O)C3CCNCC3)s2)o1` + O=C(Nc1cccc(Cl)c1)Nc1ncc(CCNc2ncnc3ccsc23)s1 [SNS314] (first compound 0.01 µM, partner dose 0.0008 µM) yielded a cell count of 93.2%. With `Cc1ccc(NC(=O)c2cccc(N(C)C)c2)cc1NC(=O)c1ccc(O)cc1` + COc1cc2c(Oc3ccc4[nH]c(C)cc4c3F)ncnc2cc1OCCCN1CCCC1 [cediranib] (first compound 2 µM, partner dose 0.4 µM) the cell count was 89%. `NC(=O)c1ccc(N(C(N)=O)c2c(F)cccc2F)nc1-c1ccc(F)cc1F` + C[C@@H]1CCN(C(=O)CC#N)C[C@@H]1N(C)c1ncnc2[nH]ccc12 [CP690550] (first compound 0.4 µM, partner dose 1 µM) was tested, and the cell count was 106%. Compound `NC(=O)c1ccc(N(C(N)=O)c2c(F)cccc2F)nc1-c1ccc(F)cc1F` + CC(C)(C)c1cnc(CSc2cnc(NC(=O)C3CCNCC3)s2)o1 [SNS-032] (first compound 0.4 µM, partner dose 0.01 µM) has a cell count of 96.9%. `CCCCCCCCc1ccc(CCC(N)(CO)CO)cc1` [fingolimod] + CC1(C)NC(=O)N(c2ccc([N+](=O)[O-])c(C(F)(F)F)c2)C1=O [nilutamide] (first compound 2 µM, partner dose 1 µM) gave a cell count of 88.6%. With `Cc1ccc(NC(=O)c2cccc(N(C)C)c2)cc1NC(=O)c1ccc(O)cc1` + CO[C@@H]1[C@H](N(C)C(=O)c2ccccc2)C[C@H]2O[C@]1(C)n1c3ccccc3c3c4c(c5c6ccccc6n2c5c31)C(=O)NC4 [Midostaurin] (first compound 2 µM, partner dose 0.08 µM) the cell count was 87.7%. With `CCCCCCCCc1ccc(CCC(N)(CO)CO)cc1` [fingolimod] + Cc1cc(N2CCOCC2)cc2[nH]c(-c3c(NC[C@@H](O)c4cccc(Cl)c4)cc[nH]c3=O)nc12 [BMS536924] (first compound 2 µM, partner dose 0.2 µM) the cell count was 94.2%. `CCCCCCCCc1ccc(CCC(N)(CO)CO)cc1` [fingolimod] + O=C(O)c1ccc(-c2c[nH]c3ncc(-c4ccccc4)cc23)cc1C1CCCC1 [GSK650394] (first compound 2 µM, partner dose 0.16 µM) was tested, and the cell count was 99.6%. `Cc1ccc(NC(=O)c2cccc(N(C)C)c2)cc1NC(=O)c1ccc(O)cc1` + OCCn1cc(-c2cnc3nnn(Cc4ccc5ncccc5c4)c3n2)cn1 [PF04217903] (first compound 2 µM, partner dose 1 µM) gave a cell count of 89.7%. In the case of `NC(=O)c1ccc(N(C(N)=O)c2c(F)cccc2F)nc1-c1ccc(F)cc1F` + C=CCn1c(=O)c2cnc(Nc3ccc(N4CCN(C)CC4)cc3)nc2n1-c1cccc(C(C)(C)O)n1 [MK1775] (first compound 0.4 µM, partner dose 0.02 µM), the cell count is reported as 101%. For `CC(C)(C)c1cnc(CSc2cnc(NC(=O)C3CCNCC3)s2)o1` + CN(NC(=O)CC(=O)NN(C)C(=S)c1ccccc1)C(=S)c1ccccc1 [STA4783] (first compound 0.01 µM, partner dose 0.006 µM), the cell count was 89.8%. Work on `Cc1ccc(NC(=O)c2cccc(N(C)C)c2)cc1NC(=O)c1ccc(O)cc1` + Cn1cncc1[C@@](N)(c1ccc(Cl)cc1)c1ccc2c(c1)c(-c1cccc(Cl)c1)cc(=O)n2C [tipifarnib] (first compound 2 µM, partner dose 0.01 µM) yielded a cell count of 96.2%. `Cc1ccc(NC(=O)c2cccc(N(C)C)c2)cc1NC(=O)c1ccc(O)cc1` + NCC(=O)Nc1ccc(-n2nc(C(F)(F)F)cc2-c2ccc3c(ccc4ccccc43)c2)cc1 [OSU03012] (first compound 2 µM, partner dose 1 µM) was tested, and the cell count was 98.3%. Compound `CCCCCCCCc1ccc(CCC(N)(CO)CO)cc1` [fingolimod] + CN(NC(=O)CC(=O)NN(C)C(=S)c1ccccc1)C(=S)c1ccccc1 [STA4783] (first compound 2 µM, partner dose 0.006 µM) has a cell count of 71.6%. `NC(=O)c1ccc(N(C(N)=O)c2c(F)cccc2F)nc1-c1ccc(F)cc1F` + COc1cc2c(Oc3ccc4[nH]c(C)cc4c3F)ncnc2cc1OCCCN1CCCC1 [cediranib] (first compound 0.4 µM, partner dose 0.4 µM) gave a cell count of 96.3%. `NC(=O)c1ccc(N(C(N)=O)c2c(F)cccc2F)nc1-c1ccc(F)cc1F` + O=C(Nc1cccc(Cl)c1)Nc1ncc(CCNc2ncnc3ccsc23)s1 [SNS314] (first compound 0.4 µM, partner dose 0.0008 µM) was tested, and the cell count was 97.8%.
